No constants are given. Whether binding was seen depends on the method and setting. In cells and extracts the contact can be indirect. Tags and fused reporters may be left off the sequences shown.
Biological target: T1, Flag-tagged Sirt7, Q9NRC8
T1 chain: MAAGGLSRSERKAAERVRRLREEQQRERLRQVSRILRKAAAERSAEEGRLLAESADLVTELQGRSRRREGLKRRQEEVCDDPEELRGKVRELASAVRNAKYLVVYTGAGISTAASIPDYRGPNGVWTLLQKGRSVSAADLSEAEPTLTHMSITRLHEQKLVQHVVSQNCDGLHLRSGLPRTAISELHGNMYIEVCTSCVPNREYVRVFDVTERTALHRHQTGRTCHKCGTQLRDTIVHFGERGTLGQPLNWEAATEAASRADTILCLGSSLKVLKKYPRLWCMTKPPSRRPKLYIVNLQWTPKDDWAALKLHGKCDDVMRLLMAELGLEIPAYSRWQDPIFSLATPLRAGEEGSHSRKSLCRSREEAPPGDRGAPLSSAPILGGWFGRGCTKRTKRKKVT
Experiment: co-IP; H1299 cells co-transfected with HA-RRM2 and a Flag-tagged partner (Flag-RRM2 variants or Flag-Sirt1-7); IP with Flag antibody, western blot with anti-HA and anti-Flag
Conditions: remark: other sources report otherwise

binding: no binding
B1: HA-tagged WT RRM2, P31350 1-389 (protein)
chain: MLSLRVPLAPITDPQQLQLSPLKGLSLVDKENTPPALSGTRVLASKTARRIFQEPTEPKTKAAAPGVEDEPLLRENPRRFVIFPIEYHDIWQMYKKAEASFWTAEEVDLSKDIQHWESLKPEERYFISHVLAFFAASDGIVNENLVERFSQEVQITEARCFYGFQIAMENIHSEMYSLLIDTYIKDPKEREFLFNAIETMPCVKKKADWALRWIGDKEATYGERVVAFAAVEGIFFSGSFASIFWLKKRGLMPGLTFSNELISRDEGLHCDFACLMFKHLVHKPSEERVREIIINAVRIEQEFLTEALPVKLIGMNCTLMKQYIEFVADRLMLELGFSKVFRVENPFDFMENISLEGKTNFFEKRVGEYQRMGVMSSPTENSFTLDADF
